Measured values published in PubChem BioAssay AID504832 (National Center for Advancing Translational Sciences (NCATS), 2011).
Among all 310,000 compounds or so, about 18,000 (5.8%) were called active. This list was built around the results that the source calls inconclusive (neither active nor inactive); the mix of calls is not that of the screen. Calls come from the whole dose curve; as a rule, active = well fitted inhibition curve with a large enough effect; inconclusive = small, poorly fitted or top-dose-only effect, or another doubt; inactive = no such curve, though single readings can be large or run the other way. Potencies of inconclusive entries are left out as doubtful fits.

Assay: Primary qHTS for delayed death inhibitors of the malarial parasite plastid, 48 hour incubation
Settings: P. falciparum luciferase growth in erythrocytes; series mostly up to 28.7 µM
Outline: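 Compounds are pin-transferred into medium, infected erythrocytes (2% hematocrit, 0.1% parasitemia final) are added, and plates sit one parasite generation at 37 C in 5% CO2. Detection reagent is then added and luminescence measured.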
Potency is the fitted concentration of half-maximal effect; tags give direction and shape of the fitted curve.

SMILES	Potency
COc1ccccc1N1CCN(C(=O)C2Cc3ccccc3CN2C(=O)c2ccco2)CC1 (configuration not stated)	inconclusive [inhibitor, partial curve, poor fit]
COc1ccc(NC(=O)c2cc3ccccc3oc2=O)c(OC)c1	inconclusive [inhibitor, full curve, poor fit]
CCN(CC)S(=O)(=O)c1ccc(O)c(NC(=O)c2cc(-c3cc(OC)c(OC)c(OC)c3)nc3ccccc23)c1	inconclusive [inhibitor, full curve]
COc1ccc(OCC(=O)Nc2ccc(S(=O)(=O)N3CCN(C)CC3)cc2)cc1	inconclusive [inhibitor, single point]
Cc1ccc(OCCCCN2CCc3ccccc3C2)c(C)c1	inactive
FC(F)(F)c1ccc2c(c1)N(CCCN1CCN(CCCl)CC1)c1ccccc1S2	active: 9.28 µM
CCCNC(=O)COC(=O)c1ccccc1C(=O)c1ccc(Cl)c([N+](=O)[O-])c1	inconclusive [inhibitor, single point]
COc1cc(C(=O)OCC(=O)NC23CC4CC(CC(C4)C2)C3)cc(OC)c1OC	inconclusive [inhibitor, partial curve, poor fit]
Cc1ccc(C)c(OCc2cc(C(=O)N(C)Cc3nccs3)no2)c1	inactive
CCOc1ccccc1-n1nnnc1SCc1nc2ccccc2s1	inactive
O=C(Nc1nnc(Cc2ccc(Cl)cc2)s1)c1cccs1	inactive
CC1CCCC(C)N1CCCNC(=O)Cn1ncc2c3ccccc3n(C)c2c1=O (configuration not stated)	inactive
CCOC(=O)C1C(=O)NC(N2CCOCC2)=NC1c1ccco1 (configuration not stated)	inactive
COc1ccc(C(=O)O/N=C/c2c(C(F)(F)F)nn(C)c2SCc2ccccc2Cl)cc1	inactive
Cc1ccc(-c2[nH]n3c(=O)c4c(nc3c2C)CCCC4)cc1	active: 0.0465 µM
CC1CCCN(S(=O)(=O)c2ccc(C(=O)Nc3ccccc3-c3nc4ccccc4[nH]3)cc2)C1 (configuration not stated)	active: 1.47 µM
COc1c(C)cc(Br)cc1C(=O)Nc1ccccc1N1CCN(C(=O)c2ccccc2)CC1	inconclusive [inhibitor, partial curve]
Cc1onc(-c2ccccc2)c1C(=O)Nc1ccc(S(=O)(=O)NC(C)(C)C)cc1	inconclusive [inhibitor, single point]
CC12C(=O)N(c3ccccc3C(=O)O)C(=O)C1C1C=CC2C1 (configuration not stated)	inactive
O=C(C(Cl)Cl)N1CCN(Cc2ccc3c(c2)OCO3)CC1	inactive
Cn1c(CCN2CCCC2)nc2cc(NS(=O)(=O)c3ccc(Cl)cc3)ccc21	inconclusive [inhibitor, single point]
CCN(CC(=O)Nc1cccc(OC)c1)C(=O)c1cccc(S(=O)(=O)N2CCc3ccccc32)c1	active: 11.7 µM
COc1ccc(CCN2C(=O)c3[nH]nc(-c4ccccc4O)c3C2c2ccc(C)cc2)cc1OC (configuration not stated)	active: 9.28 µM
Cc1cccc(C)c1N(CC(=O)Nc1cc(Cl)ccc1Oc1ccccc1)S(C)(=O)=O	active: 10.4 µM

SMILES	Potency
Cc1ccc(-n2c(C)cc(C(=O)COC(=O)C3=NNC(=O)CC3)c2C)cc1	inconclusive [inhibitor, single point]
COc1ccc(CN2C(=O)NC(C)(c3ccc(C)cc3)C2=O)cc1F (configuration not stated)	inconclusive [inhibitor, single point]
O=C(N/N=C/c1c(O)ccc2ccccc12)c1cccc(C(F)(F)F)c1	active: 3.7 µM
CC(=O)N1CCCc2cc(S(=O)(=O)N(CC(C)C)CC(C)C)ccc21	inconclusive [inhibitor, partial curve]
Cc1ccc(-n2nnnc2SCC(=O)N2CCc3ccccc3C2)c(C)c1	inconclusive [inhibitor, partial curve, poor fit]
O=C(COc1ccccc1Cl)Nc1ccc(N2CCN(C(=O)c3ccccc3)CC2)cc1	inconclusive [inhibitor, single point]
CCCOc1ccc2c3c(c(=O)oc2c1)CCCC3	inconclusive [inhibitor, single point]
CSc1ncccc1C(=O)Nc1ccc(S(=O)(=O)N2CCCC2)cc1	inconclusive [inhibitor, single point]
CCOC(=O)c1ccc(N2CCN(c3ccccc3F)CC2)c(NC(=O)Nc2ccccc2)c1	active: 13.1 µM
COC(=O)CC(c1ccc(F)cc1)n1c(C)ccc1C (configuration not stated)	inconclusive [inhibitor, single point]
COc1cccc(C(=O)Nc2ccc(F)c(F)c2F)c1	inactive
CC(=NCc1cccnc1)C1=C(O)c2ccccc2C1=O	inconclusive [inhibitor, partial curve, poor fit]
COc1cccc(C(=O)NCC(C)(C)SCc2ccc(F)cc2)c1	inactive
Cc1noc(C)c1COc1ccc(C(=O)N2CCN(c3ccccc3F)CC2)cc1	inconclusive [inhibitor, single point]
CCC1CCCCN1C(=O)c1ccc(OC2CCN(C(=O)C3CC3)CC2)cc1 (configuration not stated)	inactive
COc1ccc(CCn2c(=N)c(C(=O)NCC3CCCO3)cc3c(=O)n4cccc(C)c4nc32)cc1 (configuration not stated)	inconclusive [inhibitor, full curve]
Cn1c(-c2ccc(F)cc2)cnc1NCc1ccc(F)cc1F	inactive
O=C(O)c1ccccc1-c1ccccc1C(=O)NCc1ccccc1F	inactive
O=C(Cn1nc(C(F)(F)F)c2c1CCC2)N1CCN(c2ccccc2)CC1	inconclusive [inhibitor, single point]
CCc1ccc(NC(=O)c2cc3c(C)nc4ccccc4c3o2)cc1	inconclusive [inhibitor, partial curve, poor fit]
CCC(C)C1NC(=O)C(C(C)=O)=C1O (configuration not stated)	inconclusive [inhibitor, partial curve]
CSCC[C@@H](CO)NC(=O)c1ccc2nc(C3CCCCC3)oc2c1	inactive
Cc1ccc(C(=O)COC(=O)c2cn3ccccc3n2)cc1	inactive
Cn1cc(CN2CCC(C(O)c3cccs3)CC2)c(-c2cccc(Cl)c2)n1 (configuration not stated)	active: 9.28 µM

SMILES	Potency
Cc1ccc(N(C(=O)c2csnn2)C(C(=O)NC(C)(C)C)c2ccncc2)cc1 (configuration not stated)	inactive
Cc1ccc(OCCCC(=O)NCc2ccco2)cc1	inconclusive [inhibitor, partial curve]
O=C(NCC(c1ccco1)N1CCCC1)c1cccc(NS(=O)(=O)c2ccccc2)c1 (configuration not stated)	active: 10.4 µM
O=C(Nc1ccccc1N1CCCC1)C1CCN(S(=O)(=O)c2cccc(C(F)(F)F)c2)CC1	active: 11.7 µM
O=C(CN1CCN(S(=O)(=O)c2ccc(F)cc2)CC1)Nc1ccccc1C(=O)NC1CC1	inconclusive [inhibitor, single point]
COc1ccc(NC(=O)C2CC(=O)OC2(C)C)cc1 (configuration not stated)	inactive
O=P(c1ccccc1)(c1ccccc1)N(c1ccccc1)c1ccccc1	inconclusive [inhibitor, single point]
C[N+]1(CC(=O)OC2CCCCCCCCCCC2)CCCC1	inconclusive [inhibitor, partial curve]
COc1ccccc1C(=O)Nc1ccc2c(c1)nc1n2CCN(C2CCCCC2)C1	inconclusive [inhibitor, full curve]
C=CCC1(CC=C)CCCN1C(=O)c1cc(COc2ccc(C)nc2)on1	inconclusive [inhibitor, single point]
N#Cc1c(NC(=O)CSc2ncc(-c3ccccc3)n2CC2CCCO2)sc2c1CCCC2 (configuration not stated)	inconclusive [inhibitor, single point]
O=C(NCc1ccc(OC(F)(F)F)cc1)C1CC2Cn3c(nc4ccccc43)C2N1c1ccccc1 (configuration not stated)	inactive
O=C(c1ccccc1Nc1ccc(SC(F)F)cc1)N1CCCCC1	inconclusive [inhibitor, single point]
O=C(Cn1cc(C(F)(F)F)ccc1=O)Nc1ccccc1	inactive
Cc1cc(C)n(CC(O)COc2ccc(C(C)C)c(C)c2)n1 (configuration not stated)	inactive
COc1ccccc1NC(=O)N1CCc2c([nH]c3ccccc23)C1C(F)(F)F (configuration not stated)	inconclusive [inhibitor, single point]
CC(C)(C)NC(=O)CN(C(=O)Cn1nnc(-c2ccccc2F)n1)c1cccc2c1CCCC2	inconclusive [inhibitor, single point]
Cc1ccc(S(=O)(=O)/N=C(\Nc2cccc(C)c2)Nc2nc(C)cc(C)n2)cc1	inconclusive [inhibitor, single point]
COc1ccc(CN(C(=O)c2ccc(-c3ccccc3)[nH]2)C(C(=O)NCC2CCCO2)c2ccc(C)o2)cc1 (configuration not stated)	active: 8.28 µM
CC1=C(C(=O)OCC2CCCO2)C(c2ccsc2)C2=C(CC(C)(C)CC2=O)N1 (configuration not stated)	inconclusive [inhibitor, partial curve, poor fit]
O=C(COC(=O)C12CC3CC(CC(C3)C1)C2)N1CCN(S(=O)(=O)c2ccccc2)CC1	inconclusive [inhibitor, single point]
O=C(COC(=O)c1cncc(Br)c1)NC1CCCCCC1	active: 3.29 µM
CCOCCn1c(CN2CCN(C(c3ccccc3)c3ccccc3)CC2)nc2c1c(=O)n(C)c(=O)n2C	active: 1.47 µM
COc1ccc(OC)c(NC(=O)C2CC2c2ccccc2)c1 (configuration not stated)	inconclusive [inhibitor, full curve, poor fit]
